In all, about 45,000 compounds went through this assay and about 65 (0.1%) were called active. Calls follow the shape of the dose curve; as a rule, active = well fitted activation curve with a large enough effect; inconclusive = small, poorly fitted or top-dose-only effect; inactive = no such curve, though single readings can be large or run the other way. The list shows a part of the results.
target: Galactocerebrosidase (Homo sapiens) (UniProt P54803); assay: A Novel Cell-Based Assay to Identify Small Molecules for B -Galactocerebrosidase; conditions: 145M-Twi-hGALC-G270D cells (Twitcher mouse brain line with human GALC G270D), HMU-beta-Gal fluorescence, 48 h; series mostly up to 57.5 µM; activation: at the top concentration; also: 0% is about no effect; nearly all actives have a fitted effect of over 65% in size
Procedure, shortened: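 Mutant human GALC (G270D), stably expressed in a Twitcher mouse brain cell line lacking endogenous GALC, is measured in live-treated cells via 6-hexadecanoylamino-4-methylumbelliferyl-β-galactoside hydrolysis (0.1 mM final, pH 5.2) with fluorescent detection.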

UniProt P54803, sequence (P54803 whole entry, looked up): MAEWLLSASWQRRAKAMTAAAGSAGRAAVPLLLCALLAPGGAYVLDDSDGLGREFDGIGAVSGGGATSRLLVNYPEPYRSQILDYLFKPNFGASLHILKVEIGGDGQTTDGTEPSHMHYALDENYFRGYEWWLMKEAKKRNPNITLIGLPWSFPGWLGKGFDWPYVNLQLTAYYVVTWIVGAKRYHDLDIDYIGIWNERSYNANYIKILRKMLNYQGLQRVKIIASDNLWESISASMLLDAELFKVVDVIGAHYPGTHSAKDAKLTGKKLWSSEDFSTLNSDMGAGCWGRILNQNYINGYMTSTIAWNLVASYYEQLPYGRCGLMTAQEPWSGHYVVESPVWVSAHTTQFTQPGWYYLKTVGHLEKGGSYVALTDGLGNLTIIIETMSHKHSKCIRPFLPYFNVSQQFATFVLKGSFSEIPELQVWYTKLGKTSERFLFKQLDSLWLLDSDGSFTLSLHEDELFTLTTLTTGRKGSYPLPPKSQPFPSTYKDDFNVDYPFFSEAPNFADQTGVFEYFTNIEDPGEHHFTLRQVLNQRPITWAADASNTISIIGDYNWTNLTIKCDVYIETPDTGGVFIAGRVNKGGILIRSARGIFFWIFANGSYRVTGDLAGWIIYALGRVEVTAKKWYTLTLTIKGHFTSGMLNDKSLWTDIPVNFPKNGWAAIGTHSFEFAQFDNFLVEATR

activation, inactive:
CN(C)CCC[C@@]1(c2ccc(F)cc2)OCc2cc(C#N)ccc21 -25%
O=S(=O)(c1ccccc1)c1nc(-c2ccc(Cl)cc2Cl)oc1N1CCCCCC1 -27.5%
CC(=O)N[C@@H](CCC(=O)O)C(=O)O -17.5%
COc1ccc(-c2nc(Cn3c(SCc4ccc(C)cc4)nc4cccnc43)c(C)o2)cc1OC -10.3%
CCC1CCCCN1CC(=O)N1CCCc2c1c(=O)oc1ccc(OCc3ccccc3)cc21 (stereo unspecified) -5.9%
O=C(CCCn1c(=O)c2cccn2c2cccnc21)NCc1ccc(F)cc1 -7.64%
COc1cccc(-c2cc(C(=O)Nc3cc(OC)c(OC)c(OC)c3)on2)c1 -11.8%
COc1cccc2c1cc1c(=O)n(CC(=O)N3CCN(c4cc(Cl)ccc4C)CC3)nc(C)n12 -16.4%
CCOC(=O)c1ccc(NC(=O)C2=C(C)Nc3nc(SCc4ccc(Cl)cc4)nn3C2c2ccc(OC)cc2)cc1 (stereo unspecified) -7.1%
COc1ccc(-c2nnc(SCC(=O)Nc3ccc(Cl)cc3)s2)cc1 -5.7%
CCN1CCN(c2ccc(NS(=O)(=O)c3c(C)nc4sccn4c3=O)cc2Cl)CC1 -50.4%
COc1ccc(CNC(=O)CCC(=O)N2CCSc3ccccc32)cc1 24%
CCOc1ccc(-n2c(C)nc3cc(C(=O)NCCC4=CCCCC4)ccc32)cc1 -8.02%
COc1ccc(C(=O)CC2(O)C(=O)N(Cc3ccccc3Cl)c3ccccc32)cc1 (stereo unspecified) 0.636%
CCOc1ccc(CC(=O)NCCc2sc3nc(-c4ccc(OC)cc4)nn3c2C)cc1 -7.69%
CCN(CC)C(=O)c1sc2c(c1C)c(=O)n(-c1ccccc1)c(=O)n2CC(=O)Nc1ccc(C)cc1C -1.65%
Cc1cc(C)cc(NC2=CC(c3cccc(F)c3)N(c3cc(C)cc(C)c3)C2=O)c1 (stereo unspecified) -15.7%
Cc1cc(=O)n(Cc2cccc(Cl)c2)c2c1c(C)nn2-c1ccccc1 6.99%
Cc1cccc(-n2c(=O)c3c4c(sc3n3cnnc23)CCCC4)c1 -19.3%
CCN1CCN(c2c(S(=O)(=O)c3ccc(C)c(C)c3)cnc3cc(OC)c(OC)cc23)CC1 -18.9%
COc1ccc(CNC(=O)CN(c2ccccc2)S(=O)(=O)N(C)C)cc1 -14.1%
CCOC(=O)c1cc2c(=O)n3ccccc3nc2n(CCCOC)c1=NC(=O)C(C)Oc1ccccc1 (stereo unspecified) -4.92%
CCOc1cc(CNc2ccc(O)cc2)ccc1OCc1ccc(Cl)cc1 -8.37%
CC1CCN(C(=O)Cn2c(=O)oc3cc(S(=O)(=O)N4CCCCC4)ccc32)CC1 0.786%
CN(C)S(=O)(=O)c1ccc(C(=O)N2CC(=O)Nc3ccc(Br)cc3C2c2ccc(F)cc2)cc1 (stereo unspecified) -8.84%
Cc1ccc(CNC(=O)c2ccc(Cn3c(SCc4ccccc4F)nc4cccnc43)cc2)cc1 -6.81%
COc1ccc(C(CNC(=O)COc2ccc(Cl)c(C)c2)N2CCOCC2)cc1 (stereo unspecified) -7.56%
CCOC(=O)Cn1cnc2onc(-c3ccc(F)cc3)c2c1=O -11.6%
CC(=O)Nc1cc(NC(C)=O)cc(-c2nc3ccccc3[nH]2)c1 -11.9%
CCN(CC)S(=O)(=O)c1nnc(NC(=O)COc2ccc(Cl)cc2)s1 0.65%
CCN(CC)CCNC(=O)c1ccc2c(c1)sc1nc(-c3ccc(F)cc3)cn12 -10.4%
CCCCSc1ncnc2c1c(-c1ccccc1)cn2-c1cccc(F)c1 5.8%
CCn1c(C(=O)N2CCC(C(=O)NCCc3ccc(OC)cc3OC)CC2)cc2sccc21 7.9%
CCOC(=O)c1c(C)oc2nc(C)nc(Nc3ccc(CC)cc3)c12 -12%
Cc1cc(C)cc(NS(=O)(=O)c2ccc3c(c2)NC(=O)C(C)S3)c1 (stereo unspecified) -10.9%
Cc1ccc(C)c(CN2C(=O)c3ccccc3S(=O)c3ccc(C(=O)NCc4ccccc4)cc32)c1 (stereo unspecified) -13.9%
CCOCCCNC(=O)C1CCC(CNS(=O)(=O)c2ccc(NC(C)=O)cc2)CC1 (stereo unspecified) -16.3%
COc1ccccc1Cc1nc2ccccc2[nH]c1=O -9.55%
COc1ccc(NC(=O)c2ccc(-c3nc(CSc4ccccc4)c(C)o3)cc2)cc1OC -6.4%
CCc1ccc(S(=O)(=O)c2nnn3c2nc(NC2CCCCCC2)c2sccc23)cc1 -14.5%
CCN1CCN(c2c(S(=O)(=O)c3ccc(OC)cc3)cnc3cc(OC)c(OC)cc23)CC1 -6.18%
Cc1c(C(=O)NCc2ccccc2Br)oc2c1-c1[nH]ncc1CC2 -18.4%
CCOC(=O)C(CC)Sc1ccc2nnc(CCNS(=O)(=O)c3ccc(C)cc3)n2n1 (stereo unspecified) -16.7%
COc1cccc2c1Oc1ncccc1N(C(=O)Nc1ccc(F)c(Cl)c1)C2 -35.4%
COc1ccc(C(CNC(=O)c2oc3ccc(C)cc3c2C)N2CCOCC2)cc1 (stereo unspecified) -9.6%
COc1ccc(OC)c(NC(=O)N2CCN(S(=O)(=O)c3ccc4c(ccn4C)c3)CC2)c1 -22.5%
COc1cc(OC)cc(C(=O)Nc2ccc3nc(N4CCCCC4)cc(C)c3c2)c1 -11.4%
CCn1cc(C(=O)N2CCN(c3cccc(Cl)c3)CC2)c(=O)c2cc(S(=O)(=O)N3CCCCC3)ccc21 -31.4%
Cc1ccc2nc(-c3ccc(O)cc3)c(Nc3ccc4c(c3)OCCO4)n2c1 -12.7%
CCCSCCCNC(=O)C1CCN(c2nn3cc(-c4ccc(F)cc4)nc3s2)CC1 9.45%
O=C(NCc1ccccc1Cl)C(=O)NCC(c1cccs1)S(=O)(=O)c1cccs1 (stereo unspecified) -30.4%
CC(C)Cn1c(=O)c2ccccc2n2c(CCC(=O)N3CCN(c4ccccc4F)CC3)nnc12 -5.87%
CCCn1c(-c2ccc(S(=O)(=O)N3CCOCC3)cc2)csc1=Nc1ccc(OCC)cc1 -9.46%
COc1cccc(C(=O)c2sc3nc(-c4ccccc4)cc(C(F)(F)F)c3c2N)c1 -13.4%
CCOC(=O)c1c(C)oc2ncnc(Nc3ccc(OCC)cc3)c12 -6.91%
Cc1ccc(C)c(N2C(=O)N(Cc3cc(=O)n4ccccc4n3)c3ccccc3S2(=O)=O)c1 -2.93%
Cc1ccc(C)n1-c1nnc(N2CCCC(C(=O)Nc3ccc(C(C)C)cc3)C2)s1 (stereo unspecified) 5.59%
CCC1CCCCN1CCCNC(=O)c1cc2c(Cl)nc3ccccc3c2s1 (stereo unspecified) 2.23%
COC(=O)c1ccccc1NC(=O)Cn1c(=O)n(Cc2ccc(C(=O)NCc3ccc4c(c3)OCO4)cc2)c(=O)c2ccccc21 6.02%
COc1cccc(NC(=O)CNC(=O)Cn2c(C)cc3ccccc3c2=O)c1 -9.78%
Cc1ccc(N(CC(=O)NCCc2ccccc2)S(=O)(=O)N(C)C)cc1 -14.3%
N#Cc1ccccc1NC(=O)Cn1cnc2onc(-c3cccc(F)c3)c2c1=O 1.07%
COc1cc(C)ccc1OCCSc1nc2ccc(NC(=O)c3ccc(F)cc3)cc2s1 -16.1%
Cn1ccc2cc(S(=O)(=O)N3CCC(C(=O)NCCc4ccccc4)CC3)ccc21 2.66%
CCCCOc1ccc(C(=O)Nc2ccc(-c3nc4ccccc4s3)cc2C)cc1 -3.52%
O=C(CN1C(=O)CCc2cc(S(=O)(=O)N3CCOCC3)ccc21)NCc1ccc(F)cc1 -2.94%
CCc1cccc(NC(=O)Nc2csc3c2CCCC3)c1 -8.72%
O=C(COc1ccccc1F)Nc1ccc(-c2nc3ccccc3s2)cc1 -21.1%
Cc1ccc(CNC(=O)c2ccc3c(c2)nc(C)n3-c2cc(C)cc(C)c2)cc1 3.25%
CCc1ccc(NC(=O)CN2C(=O)C3(SCC(=O)N3c3ccccc3)c3ccccc32)cc1 (stereo unspecified) -7.29%
COc1ccc(NC(=O)c2sc3nc(C)c(C(=O)Nc4ccc(C)cc4C)c(-c4ccc(C)o4)c3c2N)cc1 -10.4%
Cc1ccc(Nc2nc(C)cc(C)n2)c(C(=O)O)c1 -31.8%
COc1ccc(NC(=O)Cn2nc(-c3ccncc3)ccc2=O)cc1Cl -6.08%
CC1(C)CC(=O)c2cc(-c3nc(-c4ccc(Cl)cc4)cs3)c(=O)n(-c3ccc(Cl)cc3)c2C1 -10.2%
Cc1ccc(Cl)cc1NC(=O)CSC1=Nc2ccccc2C2=NC(Cc3ccccc3)C(=O)N12 (stereo unspecified) -14.3%
Cc1ccc(Cn2ccnc2SCC(=O)NCc2ccc(F)cc2)cc1 -8.57%
COc1ccc(OCCCCn2c(C3CC(=O)N(c4cccc(Cl)c4)C3)nc3ccccc32)cc1 (stereo unspecified) 21.1%
COc1ccc(NC(=O)CSc2nc3ccccc3n2CC(=O)N(C)c2ccc(F)cc2)cc1 -6.09%
C#CC(C)(CC)NC(=O)c1cnn2c(C(F)F)cc(-c3ccccc3OC)nc12 (stereo unspecified) -13.6%
Cc1cc(C)n(CCc2nc3c4ccccc4nc(N4CCN(c5ccccc5F)CC4)n3n2)n1 -6.13%
COc1ccc(CCNc2ncnc3c2cnn3-c2cccc(Cl)c2)cc1 -3.09%
CC(C)CCNC(=O)c1ccc2c(c1)NC(=O)C(CS(=O)(=O)Cc1cccc(Br)c1)N2 (stereo unspecified) 18.3%
Cc1ccc(NC(=O)/C(C#N)=C/c2ccc(C)o2)cc1 -17.8%
CCOc1ccc(NC(=O)c2cn(C)c(=O)c3cc(OC)c(OC)cc23)cc1 -6.33%
CCOC(=O)C1CCN(CC(=O)N2CCCc3c2c(=O)oc2ccc(OCc4ccccc4)cc32)CC1 -13.5%
CC(=O)Oc1cccc(O)c1 -13.9%
COc1ccc(-c2onc(C)c2C)cc1S(=O)(=O)N(C)Cc1ccco1 -12.3%
CCOC(=O)C1CCC(CN(Cc2ccc(Cl)cc2)S(=O)(=O)c2ccc(Br)cc2)CC1 (stereo unspecified) 5.53%
CN1C(=O)C2(SCC(=O)N2c2cccc(C(F)(F)F)c2)c2ccccc21 (stereo unspecified) 3.22%
CCCN1CCN(CCNC(=O)Nc2ccc(OC)c(OC)c2)CC1 -6.81%
CCS(=O)(=O)N1CCc2cc(C(=O)NCCc3ccccc3)ccc21 -9.13%
CCCc1c(OCCCCc2nn[nH]n2)ccc(C(C)=O)c1O -14%
CCCN(c1ccccc1CC)S(=O)(=O)c1ccc2c(c1)CC(C)N2C(=O)C1CC1 (stereo unspecified) -9.85%
CCN(CCCNC(=O)c1cc2cc3ccc(C)cc3nc2s1)c1ccccc1 -1.42%
CCS(=O)(=O)N1CC(=O)N(c2cccc(Cl)c2C)C(C)(C(=O)NC2CCCCC2)C1 (stereo unspecified) 3.54%
COc1ccc(-c2nc(CSCC(=O)N3CCN(c4ccc(OC)cc4)CC3)c(C)o2)cc1 -0.412%

From PubChem BioAssay AID1159614 (National Center for Advancing Translational Sciences (NCATS), 2016)
